According to paper PMC4336329 (PLoS ONE, 2015):
Among all 310,000 compounds or so, about 2,200 (0.71%) showed an effect of 50% or more. Effects have a minus sign here. The list shows a part of the results.

Each compound was assayed against human ether-à-go-go-related gene (hERG) potassium channel (human, UniProt Q12809) (assay: primary screen, population patch clamp on CHO cells stably expressing hERG).
Chain of human ether-à-go-go-related gene (hERG) potassium channel (Q12809 whole entry, looked up): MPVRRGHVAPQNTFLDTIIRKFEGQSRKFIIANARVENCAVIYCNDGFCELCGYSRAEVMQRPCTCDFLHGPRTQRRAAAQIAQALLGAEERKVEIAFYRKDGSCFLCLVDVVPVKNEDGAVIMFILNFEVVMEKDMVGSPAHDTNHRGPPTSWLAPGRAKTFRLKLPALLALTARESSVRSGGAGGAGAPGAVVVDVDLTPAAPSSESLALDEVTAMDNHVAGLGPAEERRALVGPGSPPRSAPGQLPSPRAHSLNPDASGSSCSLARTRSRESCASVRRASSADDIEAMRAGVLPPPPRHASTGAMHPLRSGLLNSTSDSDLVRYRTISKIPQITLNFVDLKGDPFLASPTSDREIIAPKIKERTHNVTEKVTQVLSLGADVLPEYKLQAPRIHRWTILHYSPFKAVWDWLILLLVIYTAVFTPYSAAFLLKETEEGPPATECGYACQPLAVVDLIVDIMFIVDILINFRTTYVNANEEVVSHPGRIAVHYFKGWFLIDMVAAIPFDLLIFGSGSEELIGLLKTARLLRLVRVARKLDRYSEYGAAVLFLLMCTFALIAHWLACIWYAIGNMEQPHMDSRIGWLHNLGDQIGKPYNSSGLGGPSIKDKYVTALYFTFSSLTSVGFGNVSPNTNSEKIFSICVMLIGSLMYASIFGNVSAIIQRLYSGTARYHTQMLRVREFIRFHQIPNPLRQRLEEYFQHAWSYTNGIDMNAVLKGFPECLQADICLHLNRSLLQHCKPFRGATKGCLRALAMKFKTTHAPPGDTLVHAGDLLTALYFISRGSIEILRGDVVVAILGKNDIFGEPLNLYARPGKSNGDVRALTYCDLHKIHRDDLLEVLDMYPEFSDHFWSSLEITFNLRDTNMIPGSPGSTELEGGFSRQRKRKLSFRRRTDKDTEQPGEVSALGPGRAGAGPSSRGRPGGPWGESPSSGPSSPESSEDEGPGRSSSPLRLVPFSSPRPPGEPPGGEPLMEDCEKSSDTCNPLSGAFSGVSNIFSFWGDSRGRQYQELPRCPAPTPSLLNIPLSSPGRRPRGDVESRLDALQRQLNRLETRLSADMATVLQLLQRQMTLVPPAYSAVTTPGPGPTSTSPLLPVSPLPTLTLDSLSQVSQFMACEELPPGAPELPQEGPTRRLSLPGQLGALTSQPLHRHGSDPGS

| SMILES | hERG current change (%, negative = inhibition) at 1uM |
| --- | --- |
| Nc1c(N(Cc2ccccc2)C(=O)COc2ccc(F)cc2)c(=O)[nH]c(=O)n1Cc1ccccc1 | 2.76% |
| O=C(C[n+]1cc(-c2ccccc2)n2c1CCC2)c1cccs1.[Br-] | 8.16% |
| C[C@H](NC(=O)c1[nH]cnc1C(=O)N[C@H](C)c1ccccc1)c1ccccc1 | 12.3% |
| COc1ccc(NC(=O)c2ccc(Cc3ccc(C)cc3)o2)cc1 | -16.2% |
| O=C(Cc1nnc(NC(=O)Nc2ccccc2)s1)NCc1ccccc1 | 14.6% |
| O=C(N/N=C/c1ccncc1)c1cccc(N/N=C/c2ccncc2)c1 | 1.51% |
| O=C1c2ccccc2C(Nc2ccc3c(c2)OCO3)N1Cc1ccc2c(c1)OCO2 (centres unmarked) | 6.62% |
| Cc1cccc(CCNC(=O)c2cc(S(=O)(=O)N3CCOCC3)cn2C)c1 | -3.05% |
| COc1cccc(NC(=O)CSc2ncc(S(=O)(=O)c3ccccc3)c(=O)[nH]2)c1 | 4.66% |
| CCOCCCNC(=O)C1CCN(S(=O)(=O)c2ccc(C)cc2)CC1 | 14.2% |
| CC(=O)N1CCc2cc(Br)cc(S(=O)(=O)N3CCN(C(=O)c4ccco4)CC3)c21 | 4.49% |
| O=C(Cc1ccccc1[N+](=O)[O-])OCc1cccc([N+](=O)[O-])c1 | 5.13% |
| COc1ccc(-n2cc(C(=O)c3ccc4ccccc4c3O)cn2)cc1 | 18% |
| COc1cc(C)ccc1S(=O)(=O)n1nc(C)cc1C | 16.6% |
| CC(C)(C)n1nc(-c2ccc(F)cc2)c2c(N)ncnc21 | -13.7% |
| COc1ccc(Cl)cc1NC(=O)c1cnc2n(c1=O)CCS2 | 0.629% |
| COc1cccc(CN2CCN(C(=O)c3cc(-c4ccncc4)nc4ccc(C)cc34)CC2)c1 | -21% |
| CN(C)S(=O)(=O)c1cccc(CSc2cccc[n+]2[O-])c1 | 9.87% |
| CSc1nnc(C)c(/C=C/Nc2ccc(C)cc2)n1 | 9.57% |
| O=C(/C=C/c1ccccc1)N/C(=C/c1ccccc1)C(=O)NCCO | -7.64% |
